The supplement of paper PMC10338343
± gives the standard deviation. The entries are a selection whose mix differs from that of the whole data set.

test system: MIWI (PIWIL1) piRISC loaded with L1MC piRNA (30 nt); test: pre-steady-state target cleavage rate (min^-1); MIWI and MILI are mouse PIWI proteins and EfPiwi is from a freshwater sponge; tags in brackets are library labels; higher = faster piRNA-guided slicing of the target; conditions: guide: L1MC piRNA 5'p-UAACUAAAUACUAUGCAAGCUGUAGGUCCU; auxiliary factor: 500 nM mouse GTSF1
Procedure, shortened: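 For Cleave-'n-Seq, a transcribed, DNA-blocked target RNA library […] met 1 nM active affinity-purified piRISC with one synthetic guide at 33 °C for 0–8 or 0–960 min in HEPES–potassium acetate buffer, with or without 500 nM GTSF1 partner protein. Uncleaved targets were sequenced and normalised to depth and weakly complementary targets, with three trials pooled and k3 capped at 0.0001 min^-1. A burst-and-steady-state fit supplied the pre-steady-state cleavage rate.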
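Note: 1 nM active piRISC with 0.1 nM target library at 33 °C single turnover.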

Sequence	pre-steady-state target cleavage rate
UCCACCUACAGCAACCAUAGUAUUUAGUUA	0.147 ± 0.023
UCCUGGAUGUCCUUGGAUAGUAUUUUGUUA	0.0668 ± 0.017
AGGACCUACAGCUUCGAUAGUAUUUAGAAA	0.177 ± 0.036
UCCUCCUACAGCUUGCAUAGUAUUAUCAAA [g7:g26:cont:t1A]	0.321 ± 0.041
UGGACCUACAGCUUCCAAAGUAUUUAGUUA	0.439 ± 0.036
UCCUGGAUGUCCUUGCAUAGUUUUUAGUAA	0.00677 ± 0.0037
UCCUGGAUGAGCUUGCAUAGUAUAUACAAA	0.00918 ± 0.0054
UCCUGCUACACGAUGCAUAGUAUUUAGAAA	0.106 ± 0.024
UCCUGGAACAGCUUGGAUAGUAUUUUCAAA	0.012 ± 0.0051
UCCUGGAUGUCGAUGCAUAGUAUUUUAGUUA	0.00428 ± 0.0031
UCCUCCUACAGCUUGCAUAGUAUUAUCUAA	0.369 ± 0.05
UCCUCCUACAGCUUGCUAUAGUAUUUAGUUA	0.0332 ± 0.012
UCCUGGAUCAGCUAGCAUAGUAUUUAGAAA	0.136 ± 0.022
UCCUGGAUGAGCUUGCAUAGUAUAUAGAAA	0.0154 ± 0.0069
UCCUGGAUGUCCUUGCAUAGUAUUAUGUUA	0.00464 ± 0.004
AGGACCUACAGCUUGCAUAGUAUUAUCUAA	0.404 ± 0.066
UCCUGGUACACCUUGCAUAGUAUUUAGAAA	0.25 ± 0.082
UGGACCUACACGUUGCAUAGUAUUUUCAAA	0.0992 ± 0.016

Sequence	pre-steady-state target cleavage rate
UCCACCUACAGCUUGCAUAGUAUUAUGUAA	0.117 ± 0.041
UCCACCUACAGCUUGCAUAGUAUAAAGAAA	0.305 ± 0.066
UCCUGGAUGUCGAUGCAUAGUAUUUAAGUUA	0.0127 ± 0.0046
UCCUGCUACAGCUUGCAUAGUAUUUGUUA	0.247 ± 0.029
UCCUGGUACAGCUUGCAUAGAUAUUAGUUA	0.0103 ± 0.0046
UCCUCCUACAGCAAGCAUAGUAUUUAGUAA	0.698 ± 0.058
UCCUGGAUGUCGAAGCAUAGUAUUUACUUA	0.00463 ± 0.0029
UCCUCCUACAGCAUGCAUAGUAUUUAGAAA	0.485 ± 0.066
UGGACCUACAGCUUGCAUAGUAAAAUCAAA	0.0748 ± 0.023
UCCUGGUACAGCUUGCAUACAAUUUAGUUA	0.0125 ± 0.0058
UCCUGGUAGUGCUUGCAUAGUAUUUUCAAA	0.0148 ± 0.0054
UGGACCUACAGCUUGCAUAGUUAUUAGAAA	0.0545 ± 0.014
UCCUCCUACAGCUAGCAUAGUAUUUAGAAA	0.312 ± 0.041
UCCUCCUACAGCUUGCAUAGUAUUUUCAUA	0.261 ± 0.034
UCCUGGAUCAGCUUGCAUAGUAUAAACAAA	0.0518 ± 0.015
UGGACCUACAGCUAGCAUAGUAUUUUCAAA	0.239 ± 0.038
UCCUGCUACAGCUUGCAUAGUAUUAGUUA	0.103 ± 0.018

same assay, conditions: guide: L1MC piRNA 5'p-UAACUAAAUACUAUGCAAGCUGUAGGUCCU; auxiliary factor: none (no GTSF1)

Sequence	pre-steady-state target cleavage rate
UCCUGGAUGUGCUUGCUUUGUAUUUAGUUA	0.00374 ± 0.0031
UCCUGGAUGUCGAACGUAUCUUUUUAGUUA	< 0.0001
UCCUCCUACCGCUUGCAUAGUAUUUAGUUA	0.0565 ± 0.0099
UCCUGGAUGUCGUUGGUAAGUAUUUAGUUA	< 0.0001
UCCUGGAUGUCGAACGUAAGUAUUUACGUUA	< 0.0001
